Measured values: patent publication US8722849B2, “Polypeptides” (Novo Nordisk A/S, priority 2011, dated 2014)
The name of at least one read-out is uncertain. Starred links: 1 amine or outer side, 2 acyl side, 3 side chain; linkers in the order of their positions; H or OH if unused. Positions of bridges follow the written chain, without caps; N, C: chain ends. Residues, ends and D or L forms follow the SMILES beside them. *: point of attachment. C20 diacid = O=C(O)CCCCCCCCCCCCCCCCCCC(=O)*; C18 diacid = O=C(O)CCCCCCCCCCCCCCCCC(=O)*; γGlu = O=C(O)[C@H](CCC(=O)[*:2])N[*:1]

Experiment: Assay (III) ThT fibrillation assay for physical stability
Assay type: physicochemical
Details: ThT fibrillation assay
Outline: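 Freshly prepared formulations, pH-adjusted, with 1 μM ThT; four or eight replicates incubated at 37 °C under 960 rpm orbital shaking. Fluorescence (ex 444/em 485 nm) read every 20 min; […]. Peptide concentration measured by RP-HPLC before and after the run.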

Structure (SMILES) | ThT pH 4.0 recovery [%] | ThT pH 4.0 recovery (%)
CC[C@H](C)[C@H](NC(=O)[C@@H]1CCCN1C(=O)CNC(=O)[C@H](Cc1ccccc1)NC(=O)[C@H](CC(N)=O)NC(=O)[C@H](CC(N)=O)NC(=O)[C@H](CO)NC(=O)[C@H](CO)NC(=O)[C@H](Cc1c[nH]cn1)NC(=O)[C@H](CCCNC(=N)N)NC(=O)[C@H](CC(C)C)NC(=O)[C@H](Cc1ccccc1)NC(=O)[C@H](CCC(=O)O)NC(=O)[C@H](C)NC(=O)[C@H](CC(C)C)NC(=O)[C@H](CCCNC(=N)N)NC(=O)[C@H](CCC(N)=O)NC(=O)[C@@H](NC(=O)[C@H](C)NC(=O)[C@@H]1CSSC[C@H](NC(=O)[C@H](CCCCN)NC(=O)CC[C@H](NC(=O)CCCCCCCCCCCCCCCCCCC(=O)O)C(=O)O)C(=O)N[C@@H](CC(N)=O)C(=O)N[C@@H]([C@@H](C)O)C(=O)N[C@@H](C)C(=O)N[C@@H]([C@@H](C)O)C(=O)N1)[C@@H](C)O)C(=O)N[C@@H](CC(C)C)C(=O)N1CCC[C@H]1C(=O)N1CCC[C@H]1C(=O)N[C@H](C(=O)N[C@@H](CC(N)=O)C(=O)N[C@H](C(=O)NCC(=O)N[C@@H](CO)C(=O)N[C@@H](Cc1c[nH]cn1)C(=O)N[C@H](C(=O)N[C@@H](Cc1ccc(O)cc1)C(N)=O)[C@@H](C)O)C(C)C)[C@@H](C)O [Example 57, N-alpha-[(S)-4-Carboxy-4-(19-carboxynonadecanoylamino)butyryl]-[Glu14,Arg17,His35]-pramlintide] ({C20 diacid-γGlu}-KCNTATCATQRLAEFLRHSSNNFGPILPPTNVGSHTY-NH2; disulfide 2-7 (inferred); C-terminus assumed) | 100 | 100
CC(C)C[C@H](NC(=O)[C@H](CCCNC(=N)N)NC(=O)[C@H](CCC(N)=O)NC(=O)[C@@H](NC(=O)[C@H](C)NC(=O)[C@@H]1CSSC[C@H](NC(=O)[C@H](CCCCN)NC(=O)CC[C@H](NC(=O)CCCCCCCCCCCCCCCCCCC(=O)O)C(=O)O)C(=O)N[C@@H](CC(N)=O)C(=O)N[C@@H]([C@@H](C)O)C(=O)N[C@@H](C)C(=O)N[C@@H]([C@@H](C)O)C(=O)N1)[C@@H](C)O)C(=O)N[C@@H](C)C(=O)N[C@@H](CCC(=O)O)C(=O)N[C@@H](Cc1ccccc1)C(=O)N[C@@H](CC(C)C)C(=O)N[C@@H](Cc1c[nH]cn1)C(=O)N[C@@H](Cc1c[nH]cn1)C(=O)N[C@@H](CO)C(=O)N[C@@H](CO)C(=O)N[C@@H](CC(N)=O)C(=O)N[C@@H](CC(N)=O)C(=O)N[C@@H](Cc1ccccc1)C(=O)NCC(=O)N[C@@H](C)C(=O)N1CCC[C@H]1C(=O)N[C@@H](CC(C)C)C(=O)N[C@@H](CO)C(=O)N[C@@H](CO)C(=O)N[C@H](C(=O)N[C@@H](CC(N)=O)C(=O)N[C@H](C(=O)NCC(=O)N[C@@H](CO)C(=O)N[C@@H](Cc1c[nH]cn1)C(=O)N[C@H](C(=O)N[C@@H](Cc1ccc(O)cc1)C(N)=O)[C@@H](C)O)C(C)C)[C@@H](C)O [Example 64, N-alpha-[(S)-4-Carboxy-4-(19-carboxynonadecanoylamino)butyryl]-[Glu14,His17,Ala25,Pro26,Ser28,Ser29,His35]-pramlintide] ({C20 diacid-γGlu}-KCNTATCATQRLAEFLHHSSNNFGAPLSSTNVGSHTY-NH2; disulfide 2-7 (inferred)) |  | 8
CC[C@H](C)[C@H](NC(=O)[C@@H]1CCCN1C(=O)CNC(=O)[C@H](Cc1ccccc1)NC(=O)[C@H](CC(N)=O)NC(=O)[C@H](CCC(N)=O)NC(=O)[C@H](CO)NC(=O)[C@H](CO)NC(=O)[C@H](Cc1c[nH]cn1)NC(=O)[C@H](Cc1c[nH]cn1)NC(=O)[C@H](CC(C)C)NC(=O)[C@H](Cc1ccccc1)NC(=O)[C@H](CCC(=O)O)NC(=O)[C@H](C)NC(=O)[C@H](CC(C)C)NC(=O)[C@H](CCCNC(=N)N)NC(=O)[C@H](CCC(N)=O)NC(=O)[C@@H](NC(=O)[C@H](C)NC(=O)[C@@H]1CSSC[C@H](NC(=O)[C@H](CCCCN)NC(=O)CC[C@H](NC(=O)CCCCCCCCCCCCCCCCCCC(=O)O)C(=O)O)C(=O)N[C@@H](CC(N)=O)C(=O)N[C@@H]([C@@H](C)O)C(=O)N[C@@H](C)C(=O)N[C@@H]([C@@H](C)O)C(=O)N1)[C@@H](C)O)C(=O)N[C@@H](CC(C)C)C(=O)N1CCC[C@H]1C(=O)N1CCC[C@H]1C(=O)N[C@H](C(=O)N[C@@H](CC(N)=O)C(=O)N[C@H](C(=O)NCC(=O)N[C@@H](CO)C(=O)N[C@@H](CCC(N)=O)C(=O)N[C@H](C(=O)N1CCC[C@H]1C(N)=O)[C@@H](C)O)C(C)C)[C@@H](C)O [Example 136, N-alpha-[(S)-4-Carboxy-4-(19-carboxynonadecanoylamino)butyryl]-[Glu14,His17,Gln21,Gln35,Pro37]-pramlintide] ({C20 diacid-γGlu}-KCNTATCATQRLAEFLHHSSQNFGPILPPTNVGSQTP-NH2; disulfide 2-7 (inferred)) | 100 | 100
CC[C@H](C)[C@H](NC(=O)[C@@H]1CCCN1C(=O)CNC(=O)[C@H](Cc1ccccc1)NC(=O)[C@H](CC(N)=O)NC(=O)[C@H](CC(N)=O)NC(=O)[C@H](CO)NC(=O)[C@H](CO)NC(=O)[C@H](Cc1c[nH]cn1)NC(=O)[C@H](Cc1c[nH]cn1)NC(=O)[C@H](CC(C)C)NC(=O)[C@H](Cc1ccccc1)NC(=O)[C@H](CCC(=O)O)NC(=O)[C@H](C)NC(=O)[C@H](CC(C)C)NC(=O)[C@H](CCCNC(=N)N)NC(=O)[C@H](CCC(N)=O)NC(=O)[C@@H](NC(=O)[C@H](C)NC(=O)[C@@H]1CSSC[C@H](NC(=O)[C@H](CCCNC(=N)N)NC(=O)CC[C@H](NC(=O)CCCCCCCCCCCCCCCCCCC(=O)O)C(=O)O)C(=O)N[C@@H](CC(N)=O)C(=O)N[C@@H]([C@@H](C)O)C(=O)N[C@@H](C)C(=O)N[C@@H]([C@@H](C)O)C(=O)N1)[C@@H](C)O)C(=O)N[C@@H](CC(C)C)C(=O)N1CCC[C@H]1C(=O)N1CCC[C@H]1C(=O)N[C@H](C(=O)N[C@@H](CC(N)=O)C(=O)N[C@H](C(=O)NCC(=O)N[C@@H](CO)C(=O)N[C@@H](CC(N)=O)C(=O)N[C@H](C(=O)N1CCC[C@H]1C(N)=O)[C@@H](C)O)C(C)C)[C@@H](C)O [Example 96, N-alpha-[(S)-4-Carboxy-4-(19-carboxynonadecanoylamino)butyryl]-[Arg1,Glu14,His17,Pro37]-pramlintide] ({C20 diacid-γGlu}-RCNTATCATQRLAEFLHHSSNNFGPILPPTNVGSNTP-NH2; disulfide 2-7 (inferred)) | 92 | 92
CC[C@H](C)[C@H](NC(=O)[C@@H]1CCCN1C(=O)CNC(=O)[C@H](Cc1ccccc1)NC(=O)[C@H](CC(N)=O)NC(=O)[C@H](CC(N)=O)NC(=O)[C@H](CO)NC(=O)[C@H](CO)NC(=O)[C@H](Cc1c[nH]cn1)NC(=O)[C@H](CCCNC(=N)N)NC(=O)[C@H](CC(C)C)NC(=O)[C@H](Cc1ccccc1)NC(=O)[C@H](CCC(=O)O)NC(=O)[C@H](C)NC(=O)[C@H](CC(C)C)NC(=O)[C@H](CCCNC(=N)N)NC(=O)[C@H](CCC(N)=O)NC(=O)[C@@H](NC(=O)[C@H](C)NC(=O)[C@@H]1CSSC[C@H](NC(=O)[C@H](CCCCN)NC(=O)[C@H](Cc2c[nH]cn2)NC(=O)CC[C@H](NC(=O)CCCCCCCCCCCCCCCCC(=O)O)C(=O)O)C(=O)N[C@@H](CC(N)=O)C(=O)N[C@@H]([C@@H](C)O)C(=O)N[C@@H](C)C(=O)N[C@@H]([C@@H](C)O)C(=O)N1)[C@@H](C)O)C(=O)N[C@@H](CC(C)C)C(=O)N1CCC[C@H]1C(=O)N1CCC[C@H]1C(=O)N[C@H](C(=O)N[C@@H](CC(N)=O)C(=O)N[C@H](C(=O)NCC(=O)N[C@@H](CO)C(=O)N[C@@H](Cc1c[nH]cn1)C(=O)N[C@H](C(=O)N[C@@H](Cc1ccc(O)cc1)C(N)=O)[C@@H](C)O)C(C)C)[C@@H](C)O [Example 71, N-alpha-[(S)-4-Carboxy-4-(17-carboxyheptadecanoylamino)butyryl]-His-[Glu14,Arg17,His35]-pramlintide] ({C18 diacid-γGlu}-HKCNTATCATQRLAEFLRHSSNNFGPILPPTNVGSHTY-NH2; disulfide 3-8 (inferred); C-terminus assumed) | 97 | 97
CC[C@H](C)[C@H](NC(=O)[C@@H]1CCCN1C(=O)CNC(=O)[C@H](Cc1ccccc1)NC(=O)[C@H](CC(N)=O)NC(=O)[C@H](CC(N)=O)NC(=O)[C@H](CO)NC(=O)[C@H](CO)NC(=O)[C@H](Cc1c[nH]cn1)NC(=O)[C@H](Cc1c[nH]cn1)NC(=O)[C@H](CC(C)C)NC(=O)[C@H](Cc1ccccc1)NC(=O)[C@H](CCC(=O)O)NC(=O)[C@H](C)NC(=O)[C@H](CC(C)C)NC(=O)[C@H](CCCNC(=N)N)NC(=O)[C@H](CCC(N)=O)NC(=O)[C@@H](NC(=O)[C@H](C)NC(=O)[C@@H]1CSSC[C@H](NC(=O)[C@H](Cc2c[nH]cn2)NC(=O)CNC(=O)CC[C@H](NC(=O)CCCCCCCCCCCCCCCCCCC(=O)O)C(=O)O)C(=O)N[C@@H](CC(N)=O)C(=O)N[C@@H]([C@@H](C)O)C(=O)N[C@@H](C)C(=O)N[C@@H]([C@@H](C)O)C(=O)N1)[C@@H](C)O)C(=O)N[C@@H](CC(C)C)C(=O)N1CCC[C@H]1C(=O)N1CCC[C@H]1C(=O)N[C@H](C(=O)N[C@@H](CC(N)=O)C(=O)N[C@H](C(=O)NCC(=O)N[C@@H](CO)C(=O)N[C@@H](CC(N)=O)C(=O)N[C@H](C(=O)N1CCC[C@H]1C(N)=O)[C@@H](C)O)C(C)C)[C@@H](C)O [Example 92, N-alpha-[(S)-4-Carboxy-4-(19-carboxynonadecanoylamino)butyryl]-Gly-[His1,Glu14,His17,Pro37]-pramlintide] ({C20 diacid-γGlu}-GHCNTATCATQRLAEFLHHSSNNFGPILPPTNVGSNTP-NH2; disulfide 3-8 (inferred); C-terminus assumed) |  | 1.6
